Experimental data reported in the RNAGym collection of RNA variant scans (doi:10.7554/elife.90254).
The source gives no read counts; variants with many changes may rest on few reads.

B1: OR4K15 (parent)
chain: GUUAACGGUCAUAGGCCAUGGAAACUAGGAGCACCAUUUCGCUGCCAGUGAAGAAAUGAACAAAGAAAAUCUGGGCCAGGCAGGCAUCAAAAGAAAUAGUCUUGCGCUCAACCAGAAAGUCUGUAAUCAUUUUAAGGGUA

Variants of: B1
Experiment: self-cleavage, relative activity (ratio to wild type); higher = more cleavage; in vitro, sequencing; the parent is a self-cleaving ribozyme

Variant | self-cleavage
U19C A30G G74A A95G | 0.26
U19C U37C A47G A52G A96G U108C | 0.02
U19C A89G A116U U130C | 0.11
U19C A66G A67G U120C | 1.04
A22G A36G A54G U102A U108A U131C | 0.01
A22G A23G A51G | 0.81
U19C A30U U70C A94G U103C | 0.71
A22G A59G A110G | 0.1
G21A A47G A125G | 0.68
A22G A98U U132C | 1.1
A22G A69U U100C U108C A125U | 0.01
A22C A23G A27G A91G U102A | 1.07
U19G U108C A117G | 0.01
A22G A69G U131A | 1
A22G A27G C40U U43A | 1.02
U19C A51U A66G A95G U130C | 0.88
U19G A55G A62G U127C | 0.75
A22G A129G U139A | 0.99
G21A A51G C105U A110U | 0.3
A22C G106A U108C | 0.02
A22G A95U U131C | 0.16
U19G A59G A66G | 0.56
U19C A51U A66G U122C | 1.62
U19C A51G A56G A66G | 1.02

Variant | self-cleavage
A22G A47G U139C | 0.91
U19C A51G U132A | 1.01
A22G A24G U49A A118G U127C | 0.37
A22G A66G A140G | 1.54
G21A A52G C109U | 0.68
G21U U26C A125G | 0.6
G20A U43C U103C A118U G136U | 0.22
A22G A33G U43C U70C A82U U87C | 0.14
U19C A63G A86G A118G | 1.31
A22G A95G U103C | 1.88
U19C A92G A117G U120C | 0.18
U19C U38C A64G U108C A140U | 0.01
A22G A59G A63G A125U | 1.31
A22G A24G A63G | 0.49
A22G A30G C81A | 0
A22G A36U A54G A68G A90U A125U | 1.78
U19C A23G A30G A33U C61U A110G A118G | 0.13
U19C A33G A78G A92G U102C | 0.35
A22G A47G A62G | 1.13
A22G A67G G83A A95G | 0.37
U19C A94G A95G U122A | 2.02
A22G A36G U87C U131C A140G | 1.26
G20A A33G C35A A82G | 0.41
A22G A33U U57G | 1.18

Variant | self-cleavage
U19A U43C A56G A67G A82G A94G A95G | 0.59
U19C C45A U108C A118G A129C | 0.01
U19C A62G U70C | 0
U19G A82G A95G | 0.62
U19C A89U U97C | 0.98
A22G A33G U87C A96G A117G | 1.52
U19C U127C U133C | 0.49
U19C A22G A30G A89U A96G | 0.84
U19C A33G A36G U37C U72A G93U | 0.21
A22G A36C U122C | 1.39
A22G A90U U102C A111G | 0.01
U19C A27U A30G | 0.45
U19C A47U A51G A118C | 0.7
U19C A24C G123A | 1.11
U19C U49C A59G A68G | 0.34
U19C A24U A66U A95G A118U | 0.85
G20A A27G A60U A64G U133A | 1.02
U19C A54G U131C | 0.98
A22G A30G A69G A78C A94G U102C A116G | 0.23
A22G A95G U108C | 0.01
U19C A22G A89G | 0.48
G21A U124C U127C | 0.58
U19C A52G A82G A129G | 0.36
A22G A96G U102C A129G | 2.19

Variant | self-cleavage
U19C U70A A96G A117U A126G U131C | 0.22
A22C U38C A82G | 0.32
U19G A23G A33G | 0.95
U19C A59G A68G A94U A116G | 0.68
U19C A95G A116G | 0.45
A22G A47G A89U | 0.77
A22G A52G A96U | 0.82
U19C A54G U57C | 0.25
A22G A66G U97A A111G U120A | 0.04
A22G A51G U102C C109A U130C | 0.55
G21A U39C A56G U87G | 0.59
A22G A66G A69G | 0.45
A22G A52G A90G | 1.12
U19C A98U A125G | 1.09
U19G U37G U70C G83U A94U U131C | 0.19
A22G A54G U124C | 0.67
A22G A66G U122C | 1.37
U19C A68G U103C U131C | 0.89
U19C A56G A89U A90G C112G A126G | 0
U19C A52G A60G | 1.05
U19C A36U U38A A89U A95G A118G U139G | 0.83
U19C A24G C45A A92G A96G A135G | 0.69
G20U C45U U49A | 1.59
U19C A60G A67G U100C | 1.8

Variant | self-cleavage
U19C A89G U100C | 1.61
U19C U43C A60G G106A | 0.03
G21C A22U A54G | 1.72
A22G A30G U70C | 1.19
A22G A56G U57C U122C | 0.84
U19C A24G A134G | 1.1
A22G A52U A63G U87C A94G | 0.82
U19C C109U A118G | 0.5
U19C A59G U72C U87C | 0.5
U19C U37C U57C A129G U132C | 2.35
U19C A23G A92U | 0.69
A22G A59U U127C | 0.71
A22G A94G U100C | 1.64
A22G A54G C105U | 0.07
U19C A33G A63G A117G | 1.04
A22G A27U G84A U120C A135G | 1.38
A22G A24G U100C | 1.02
U19C A55G A64G U130C | 0.55
U19C A55G U127C | 0.37
U19C G73A A92G U108C | 0.02
U19C A36C U39C A47G | 0.75
U19C A24G A66G U108C U122A | 0.02
A22G A60G A94U U132C | 1.1
A22G A33G A89U | 1.06

Variant | self-cleavage
A22G A82U A110G | 0.02
U19C A54G A68G A78U A82G A129G | 0.04
A22G A92G U131C | 1.91
U19C A60G A67U A114U | 0.21
U19C C32U A66U A90G U127A | 1.92
G21A A86U U100C | 2.86
G20U A23G U37C U49C A59G A66U U132A | 0.41
G21U A60G A91G | 0.8
U19C A67G A89G | 1.06
A22G A24G U37C A116G | 0.3
A22G A62G U70C U87C | 0.33
U19C A24C U39C A52G | 1.16
U19C A22G U43C A82U U103C U127C | 0.02
A22G A68G A69G A78U | 0.31
A22G A96G A118U A129G | 0.35
U19C A64U A86G | 0.83
A22G A51G U87C A111U | 0.19
U19G A24G A54G | 0.85
U19C A47U C107A U139A | 0.02
U19C A67G A95G A116G | 1.62
U19C A66G C81A U124C | 0.16
A22G A69G U72A | 0.32
U19C A60G U108C | 0.04
A22G A24U U43C A67G A68G U108C A126G | 0

Variant | self-cleavage
A22G A68G A96G A114G U122A | 0.26
A22C U57C A62G A68G | 0.33
A22G A95G A117G U122C | 1.54
U19C U72C U100G | 0.28
U19C A22U A89G | 1.52
A22G A60G A89U | 1
U19C U100C U130C | 2.23
A22G A86G A110G A117U | 0.14
U19C A23G A66C A111U | 0.28
G20A G106U A111G | 0
U19C A23G U43C G58C A91G | 0.77
A22G A51G A52G U72A U87G U139C | 0.35
A22C U87C A140G | 1.76
G20U C45G U49C A56G A114G U124A | 0.08
A22G A24U U37C | 1.5
A22G A55G A86G U103C U122C A129G | 0.28
U19A U97A A116G A129G | 0.3
A22G A98G G115U | 0.06
U19C A68G A90C A135G | 0.92
U19C A62G A64G A86G | 0.84
A22G A86G U108C | 0.02
A22G A78U A86G U87A | 0.28
U19C C42A U87G U127A U132C | 0.99
